Data on twelve sequences can be found in paper PMC5700166.

Common to all, as to test: protein-binding microarray (PBM)
What all share (conditions): PBM: ~300 nM protein, 6 mM HEPES pH 7.8, 80 mM KCl, 0.5 mM EDTA, 0.5 mM EGTA, 6% glycerol, 35 ng/ul poly-dIdC, 1% milk, 1 h, room temperature; Ap Aiptasia and Nv Nematostella (sea anemones) / Co Capsaspora / Aq Amphimedon (sponge) / Dm Drosophila / Hu human; RHD is the Rel homology domain; high values mean tight binding; most listed sequences are background and not binding sites; double strand, one strand shown

One assay addresses T1, GST-Ap-NF-kB RHD (UniProt A0A913YAJ5).
T1 sequence: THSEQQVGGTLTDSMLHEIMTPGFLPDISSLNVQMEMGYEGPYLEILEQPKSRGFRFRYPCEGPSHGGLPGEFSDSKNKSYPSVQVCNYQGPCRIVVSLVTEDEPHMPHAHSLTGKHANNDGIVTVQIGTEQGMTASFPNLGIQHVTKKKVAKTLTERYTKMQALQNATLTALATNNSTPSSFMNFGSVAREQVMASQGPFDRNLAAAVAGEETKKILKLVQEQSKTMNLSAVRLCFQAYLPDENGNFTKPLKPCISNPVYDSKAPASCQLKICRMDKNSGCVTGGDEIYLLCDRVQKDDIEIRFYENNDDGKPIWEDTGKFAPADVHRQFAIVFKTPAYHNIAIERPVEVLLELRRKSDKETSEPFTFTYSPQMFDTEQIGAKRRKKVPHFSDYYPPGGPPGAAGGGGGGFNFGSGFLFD

Assay [1] addresses T2, GST-Nv-NF-kB (Cys allele) (UniProt E5G601).
T2 sequence: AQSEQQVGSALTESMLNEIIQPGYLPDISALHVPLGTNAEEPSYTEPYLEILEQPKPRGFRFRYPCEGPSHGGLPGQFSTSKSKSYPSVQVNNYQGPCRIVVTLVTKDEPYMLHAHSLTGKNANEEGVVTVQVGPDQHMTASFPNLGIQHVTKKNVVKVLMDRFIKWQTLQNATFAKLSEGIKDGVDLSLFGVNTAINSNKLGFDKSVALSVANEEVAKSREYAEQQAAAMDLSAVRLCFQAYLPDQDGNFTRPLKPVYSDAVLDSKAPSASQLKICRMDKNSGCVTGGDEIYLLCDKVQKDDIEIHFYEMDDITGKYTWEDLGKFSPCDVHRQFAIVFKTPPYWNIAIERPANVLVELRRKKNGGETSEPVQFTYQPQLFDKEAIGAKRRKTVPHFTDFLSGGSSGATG

The target of the next assay is T3, GST-Co-NF-kB (UniProt F1ARL5).
T3 sequence: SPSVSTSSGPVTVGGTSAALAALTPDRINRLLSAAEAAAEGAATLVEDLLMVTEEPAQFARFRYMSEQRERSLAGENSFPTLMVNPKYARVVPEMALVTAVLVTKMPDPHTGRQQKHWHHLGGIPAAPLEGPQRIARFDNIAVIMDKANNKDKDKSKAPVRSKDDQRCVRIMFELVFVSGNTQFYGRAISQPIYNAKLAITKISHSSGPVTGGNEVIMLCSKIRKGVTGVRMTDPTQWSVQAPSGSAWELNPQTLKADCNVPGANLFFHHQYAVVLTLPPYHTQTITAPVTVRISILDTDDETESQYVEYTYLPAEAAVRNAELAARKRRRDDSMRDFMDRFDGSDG

The target in another assay is T4, GST-Dm-Relish (UniProt Q94527).
T4 sequence: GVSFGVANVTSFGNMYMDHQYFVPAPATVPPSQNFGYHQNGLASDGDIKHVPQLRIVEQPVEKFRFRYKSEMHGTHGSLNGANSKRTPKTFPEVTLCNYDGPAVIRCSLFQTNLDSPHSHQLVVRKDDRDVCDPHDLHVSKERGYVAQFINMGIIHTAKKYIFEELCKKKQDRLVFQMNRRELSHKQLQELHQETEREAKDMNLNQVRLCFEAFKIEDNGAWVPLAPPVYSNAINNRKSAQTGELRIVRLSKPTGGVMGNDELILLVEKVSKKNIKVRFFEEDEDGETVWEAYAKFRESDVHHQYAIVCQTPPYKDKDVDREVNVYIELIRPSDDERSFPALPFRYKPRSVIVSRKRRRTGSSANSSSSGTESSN

A further assay concerns the target T5, GST-Aq-NF-kB (UniProt A9Y5G7).
T5 sequence: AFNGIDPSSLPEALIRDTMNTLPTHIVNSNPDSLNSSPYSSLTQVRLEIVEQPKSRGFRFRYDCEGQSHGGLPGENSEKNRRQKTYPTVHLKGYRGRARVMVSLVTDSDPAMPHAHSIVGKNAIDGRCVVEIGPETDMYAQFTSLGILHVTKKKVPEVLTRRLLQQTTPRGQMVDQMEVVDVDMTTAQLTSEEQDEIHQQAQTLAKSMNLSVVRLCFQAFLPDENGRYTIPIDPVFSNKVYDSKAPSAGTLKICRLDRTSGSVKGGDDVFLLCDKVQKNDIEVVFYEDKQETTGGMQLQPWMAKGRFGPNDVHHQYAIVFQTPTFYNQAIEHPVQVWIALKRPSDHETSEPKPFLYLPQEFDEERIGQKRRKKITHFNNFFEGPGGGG

Only a part is listed here, and it is no random draw. The list includes weakly bound sequences.

Regarding “CCGATTAACATCATCAGGGTTTGTGATGTTAATCGGGTCTTGATTCGCTTGACGCTGCTG”, the binding signal with GST-Ap-NF-kB RHD is 0.626 z-score; in assay [1], -0.425 z-score; with GST-Co-NF-kB, 0.654 z-score; with GST-Dm-Relish it was 0.963 z-score; with GST-Aq-NF-kB, 0.627 z-score.

With “CCGATTAACATCAACGATATGGTTGATGTTAATCGGGTCTTGATTCGCTTGACGCTGCTG”, the binding signal with GST-Ap-NF-kB RHD was -0.567 z-score; in assay [1], -0.119 z-score; with GST-Co-NF-kB it was -0.279 z-score; with GST-Dm-Relish, -0.603 z-score; with GST-Aq-NF-kB, -0.657 z-score.

With “CCGATTAACATCAGCCTAAATACTGATGTTAATCGGGTCTTGATTCGCTTGACGCTGCTG”, the binding signal is -0.68 z-score with GST-Ap-NF-kB RHD; -0.241 z-score in assay [1]; -0.14 z-score with GST-Co-NF-kB; -0.731 z-score with GST-Dm-Relish; -0.413 z-score with GST-Aq-NF-kB.

Take “CCGATTAACATCAAAATTCCTACTGATGTTAATCGGGTCTTGATTCGCTTGACGCTGCTG”: the binding signal with GST-Ap-NF-kB RHD was 0.219 z-score; in assay [1], 0.16 z-score; in the assay with GST-Co-NF-kB, 0.866 z-score; in the assay with GST-Dm-Relish, 0.501 z-score; in the assay with GST-Aq-NF-kB, 0.353 z-score.

Consider “CCGATTAACATCAGTTAGGTTAATGATGTTAATCGGGTCTTGATTCGCTTGACGCTGCTG”, for which the binding signal in the assay with GST-Ap-NF-kB RHD was -0.064 z-score; in assay [1], -0.16 z-score; in the assay with GST-Co-NF-kB it was -0.95 z-score; with GST-Dm-Relish, -0.476 z-score; with GST-Aq-NF-kB it was -0.312 z-score.

For the sequence “CCGATTAACATCAGCTAACTGCTTGATGTTAATCGGGTCTTGATTCGCTTGACGCTGCTG”, the binding signal in the assay with GST-Ap-NF-kB RHD was -0.645 z-score; in assay [1], -0.708 z-score; with GST-Co-NF-kB, -1.16 z-score; in the assay with GST-Dm-Relish, -0.656 z-score; in the assay with GST-Aq-NF-kB, -0.366 z-score.

“CCGATTAACATCAGTCTACGTGCTGATGTTAATCGGGTCTTGATTCGCTTGACGCTGCTG”: the binding signal in the assay with GST-Ap-NF-kB RHD was -0.665 z-score; in assay [1] it was -0.764 z-score; in the assay with GST-Co-NF-kB, -0.69 z-score; with GST-Dm-Relish, -0.937 z-score; with GST-Aq-NF-kB it was -0.492 z-score.

Regarding “CCGATTAACATCAGGAATATCCATGATGTTAATCGGGTCTTGATTCGCTTGACGCTGCTG”, the binding signal with GST-Ap-NF-kB RHD is -0.515 z-score; in assay [1] it was -0.207 z-score; with GST-Co-NF-kB, -0.802 z-score; with GST-Dm-Relish, -0.13 z-score; with GST-Aq-NF-kB, 0.75 z-score.

Take “CCGATTAACATCAGGCAATTCCATGATGTTAATCGGGTCTTGATTCGCTTGACGCTGCTG”: the binding signal with GST-Ap-NF-kB RHD is -0.159 z-score; in assay [1], -0.358 z-score; with GST-Co-NF-kB, -0.612 z-score; in the assay with GST-Dm-Relish it was -0.0256 z-score; with GST-Aq-NF-kB, 0.404 z-score.

Regarding “CCGATTAACATCATTGCTGAGAATGATGTTAATCGGGTCTTGATTCGCTTGACGCTGCTG”, the binding signal is -0.423 z-score with GST-Ap-NF-kB RHD; -0.529 z-score in assay [1]; -0.125 z-score in the assay with GST-Co-NF-kB; -0.446 z-score in the assay with GST-Dm-Relish; -0.561 z-score in the assay with GST-Aq-NF-kB.

In the case of “CCGATTAACATCAACACGGTGAGTGATGTTAATCGGGTCTTGATTCGCTTGACGCTGCTG”, the binding signal in the assay with GST-Ap-NF-kB RHD is -0.369 z-score; in assay [1] it was -0.181 z-score; in the assay with GST-Co-NF-kB, -0.496 z-score; in the assay with GST-Dm-Relish it was -0.151 z-score; with GST-Aq-NF-kB, -0.447 z-score.

As to “CCGATTAACATCACGCAGTATTGTGATGTTAATCGGGTCTTGATTCGCTTGACGCTGCTG”, the binding signal with GST-Ap-NF-kB RHD was -0.186 z-score; in assay [1], 0.105 z-score; with GST-Co-NF-kB, -0.15 z-score; in the assay with GST-Dm-Relish it was 0.688 z-score; in the assay with GST-Aq-NF-kB, -0.321 z-score.
